# Measurements as given in the antibiotic and cytotoxicity screens of Wong et al. (2023).
# The other results are listed elsewhere or left out.
# Key:
# HSkMC = human skeletal muscle cells; assay: cytotoxicity call (relative viability < 0.9); details: 10 µM
# S. aureus RN4220 = assay: growth inhibition call (relative growth <= 0.2); details: 50 µM
Compound,cytotoxicity call (HSkMC),growth inhibition call (S. aureus RN4220)
CO[C@@H]1CN(C)C(=O)c2ccc(NC(=O)c3cc(C)on3)cc2OC[C@@H](C)N(C(=O)C2CCC2)C[C@H]1C,inactive,inactive
CC(C)NC(=O)Nc1ccc2c(c1)CC(=O)N([C@@H](C)CO)C[C@@H](C)[C@H](CN(C)Cc1ccc(-c3ccccc3)cc1)O2,inactive,inactive
COc1ccc(NC(=O)Nc2ccc3c(c2)C(=O)N([C@H](C)CO)C[C@H](C)[C@H](CN(C)S(=O)(=O)c2ccc(OC)cc2)OCCCC[C@@H](C)O3)cc1,inactive,inactive
Cc1cc(-c2cc(OC(=O)c3ccccc3)ccc2Cl)cc2nnc(Nc3ccc(OCCN4CCCC4)cc3)nc12,active,inactive
C[C@@H]1CN([C@@H](C)CO)C(=O)c2cc(NC(=O)Nc3ccccc3)ccc2O[C@@H](C)CCCCO[C@H]1CN(C)CC1CCCCC1,inactive,inactive
C[C@H](CO)N1C[C@H](C)[C@@H](CN(C)C(=O)NC2CCCCC2)OCCCC[C@H](C)Oc2ccc(NC(=O)Nc3ccc(F)cc3)cc2C1=O,inactive,inactive
C[C@@H]1CN([C@H](C)CO)C(=O)Cc2cc(NC(=O)Cn3cnnn3)ccc2O[C@H]1CN(C)Cc1ccccc1,inactive,inactive
CCCNC(=O)Nc1ccc2c(c1)C(=O)N(C)C[C@@H](OC)[C@@H](C)CN(Cc1ccc(-c3ccccn3)cc1)[C@@H](C)CO2,inactive,inactive
C[C@H]1CN([C@@H](C)CO)S(=O)(=O)c2ccc(C3=CCCCC3)cc2O[C@@H]1CN(C)C(=O)C1CCOCC1,inactive,inactive
C=CCC[C@@H](Cc1ccc(F)cc1)C(=O)OC[C@@H](Cc1c[nH]c2ccccc12)NC(=O)[C@@H](CC=C)CC(=O)N[C@@H](CO)Cc1ccccc1,inactive,inactive
CC(=O)N1CCc2n[nH]c(C(=O)N3CCOCC3)c2C1,inactive,inactive
C[C@@H]1CN([C@@H](C)CO)C(=O)Cc2cc(NS(=O)(=O)c3ccc(F)cc3)ccc2O[C@H]1CN(C)Cc1ccc(Oc2ccccc2)cc1,inactive,inactive
O=C(CN1CCOCC1)NCC[C@H]1CC[C@@H](NC(=O)c2ccccc2F)[C@@H](CO)O1,inactive,inactive
Cc1noc(C)c1S(=O)(=O)Nc1ccc2c(c1)C(=O)N([C@@H](C)CO)C[C@@H](C)[C@@H](CN(C)C(=O)Nc1ccccc1)OCCCC[C@@H](C)O2,inactive,inactive
C[C@@H]1CCCCO[C@@H](CN(C)C(=O)C2CCCCC2)[C@H](C)CN([C@H](C)CO)C(=O)c2cc(NC(=O)Nc3cccc4ccccc34)ccc2O1,inactive,inactive
NC(=S)CS(=O)(=O)c1ccccn1,inactive,inactive
CC[C@H](C)n1ncn(-c2ccc(N3CCN(c4ccc(OC[C@H]5CO[C@](Cn6cncn6)(c6ccc(Cl)cc6Cl)O5)cc4)CC3)cc2)c1=O,active,inactive
C[C@H](CO)N1C[C@H](C)[C@H](CN(C)C(=O)Nc2ccc(C(F)(F)F)cc2)OCCCC[C@H](C)Oc2ccc(NC(=O)Nc3cccc4ccccc34)cc2C1=O,inactive,inactive
COc1ccc(CN(C)C[C@@H]2OCCCC[C@H](C)Oc3ccc(NC(=O)Nc4ccc(F)cc4)cc3C(=O)N([C@H](C)CO)C[C@H]2C)cc1,inactive,inactive
CCc1nc2ccc(C(=O)Nc3cc(-c4ccccc4)ccc3OC)cn2c1N(C)CCCc1ccccc1,inactive,inactive
COc1cc2nc(N(C)CCCNC(=O)C3CCCO3)nc(N)c2cc1OC.Cl (stereo not given),inactive,inactive
CC(C)NC(=O)N(C)C[C@@H]1Oc2ccc(NC(=O)NC3CCCCC3)cc2C(=O)N([C@@H](C)CO)C[C@@H]1C,inactive,inactive
O=C(C[C@H]1C[C@@H]2c3cc(NS(=O)(=O)c4ccc(F)cc4)ccc3O[C@@H]2[C@@H](CO)O1)NCc1ccc(Oc2ccccc2)cc1,inactive,inactive
C[C@H]1CCCCO[C@@H](CN(C)C(=O)c2ccncc2)[C@@H](C)CN([C@@H](C)CO)C(=O)c2cc(NS(=O)(=O)c3ccc(Cl)cc3)ccc2O1,inactive,inactive
CCC1OC(=O)C(C)C(OC2CC(C)(OC)C(O)C(C)O2)C(C)C(OC2OC(C)CC(N(C)C)C2O)C(C)(O)CC(C)C(=O)C(C)C(O)C1(C)O (stereo not given),inactive,active
C[C@H](CO)N1C[C@H](C)[C@H](CN(C)S(=O)(=O)c2ccccc2)Oc2ccc(NC(=O)c3ccncc3)cc2CC1=O,inactive,inactive
CC(C)NC(=O)N(C)C[C@H]1Oc2c(NS(=O)(=O)c3ccccc3)cccc2C(=O)N([C@H](C)CO)C[C@@H]1C,inactive,inactive
COc1cc(C)ccc1S(=O)(=O)N1[C@@H]2CC[C@@H](C2)[C@H]1c1nc2cccc(OCc3ccc(F)cc3)c2[nH]1,inactive,inactive

Compound,cytotoxicity call (HSkMC),growth inhibition call (S. aureus RN4220)
Cc1nnc(N2CCC[C@]3(CN(C(=O)CO)CCO3)C2)o1,inactive,inactive
Cc1ccc(S(=O)(=O)N(C)C[C@H]2OCCCC[C@H](C)Oc3ccc(NS(=O)(=O)c4ccc(F)cc4)cc3C(=O)N([C@@H](C)CO)C[C@H]2C)cc1,inactive,inactive
C[C@@H]1CN([C@@H](C)CO)C(=O)c2cc(NC(=O)CCCN(C)C)ccc2O[C@@H](C)CCCCO[C@@H]1CN(C)S(C)(=O)=O,inactive,inactive
O=C(OC[C@H]1O[C@@H](OC(=O)c2cc(O)c(O)c(O)c2)[C@H](O)[C@@H](O)[C@@H]1O)c1cc(O)c(O)c(O)c1,inactive,inactive
CC[C@H]1OC(=O)[C@H](C)[C@@H](O[C@H]2C[C@@](C)(OC)[C@@H](O)[C@H](C)O2)[C@H](C)[C@@H](O[C@@H]2O[C@H](C)C[C@H](N(C)C)[C@H]2O)[C@](C)(O)C[C@@H](C)[C@@H]2N[C@@H](COCCOC)O[C@H]([C@H]2C)[C@]1(C)O,inactive,active
C[C@@H]1CN([C@H](C)CO)C(=O)c2cc(NS(C)(=O)=O)ccc2O[C@@H]1CN(C)C(=O)Nc1ccc(F)cc1,inactive,inactive
CC(C)N1C[C@H](C)[C@@H](CN(C)Cc2ccc(Oc3ccccc3)cc2)Oc2c(C(=O)Nc3ccncc3)cccc2C1=O,inactive,inactive
COc1ccc([Si](C)(C)[C@@H]2[C@@H](CCO)O[C@]3(C(=O)N(Cc4ccc(N5CCCCC5=O)cc4)c4ccccc43)[C@H]2C)cc1,inactive,inactive
C[C@@H]1CCCCO[C@H](CN(C)C(=O)Nc2ccc(F)cc2)[C@H](C)CN([C@H](C)CO)C(=O)c2cc(NS(=O)(=O)c3cccs3)ccc2O1,inactive,inactive
C[C@H]1CN([C@@H](C)CO)C(=O)c2cc(NC(=O)Cc3ccccc3)ccc2O[C@H]1CN(C)Cc1ccc(Oc2ccccc2)cc1,inactive,inactive
N#Cc1ccc(CN)cc1,inactive,inactive
C[C@@H]1CCCCO[C@@H](CN(C)S(=O)(=O)c2ccc(F)cc2)[C@H](C)CN([C@@H](C)CO)C(=O)c2cc(NS(=O)(=O)c3ccc(Cl)cc3)ccc2O1,inactive,inactive
C[C@@H]1CCCCO[C@@H](CN(C)Cc2ccc3c(c2)OCO3)[C@H](C)CN([C@H](C)CO)C(=O)c2cc(NS(=O)(=O)c3ccc(F)cc3)ccc2O1,inactive,inactive
C[C@@H]1CN([C@@H](C)CO)C(=O)Cc2cc(NC(=O)Nc3ccc(C(F)(F)F)cc3)ccc2O[C@H]1CN(C)Cc1ccccc1,inactive,inactive
COc1ccccc1CN1C(=O)c2ccccc2[C@](Cc2ccccc2I)(C(=O)O)[C@@H]1c1ccc(CO)cc1,inactive,inactive
COc1ccc(CN(C)C[C@@H]2OCCCC[C@@H](C)Oc3ccc(NC(=O)Cc4ccccc4)cc3C(=O)N([C@H](C)CO)C[C@H]2C)cc1,inactive,inactive
Cc1noc(C)c1S(=O)(=O)Nc1ccc2c(c1)C(=O)N([C@@H](C)CO)C[C@@H](C)[C@@H](CN(C)S(=O)(=O)c1ccc(Cl)cc1)O2,inactive,inactive
C[C@@H]1CN([C@H](C)CO)C(=O)c2cc(C#CC3CCCC3)cnc2O[C@H]1CN(C)S(=O)(=O)c1cccc(F)c1,inactive,inactive
COCC#Cc1cnc2c(c1)C(=O)N([C@@H](C)CO)C[C@@H](C)[C@@H](CN(C)C(=O)Nc1ccc(OC)cc1)O2,inactive,inactive
C[C@@H]1CN([C@H](C)CO)C(=O)c2cccc(NS(=O)(=O)c3ccc(F)cc3)c2O[C@H]1CN(C)S(=O)(=O)c1ccccc1,inactive,inactive
COc1ccc([Si](C)(C)[C@@H]2[C@@H](CC(=O)N3Cc4ccccc4C[C@H]3CO)O[C@]3(C(=O)N(Cc4ccc(I)cc4)c4ccccc43)[C@H]2C)cc1,inactive,inactive
Cc1cccc(C)c1OC[C@@H](C)N,inactive,inactive
C[C@@H]1CN([C@@H](C)CO)C(=O)Cc2cc(NS(C)(=O)=O)ccc2O[C@H]1CN(C)C(=O)Nc1ccc(F)cc1,inactive,inactive
NCCCC[C@H](NC(=O)[C@@H]1CCCN1C(=O)[C@@H]1CSSC[C@H](N)C(=O)N[C@@H](Cc2ccc(O)cc2)C(=O)N[C@@H](Cc2ccccc2)C(=O)N[C@@H](CCC(N)=O)C(=O)N[C@@H](CC(N)=O)C(=O)N1)C(=O)NCC(N)=O,inactive,inactive
COc1ccc(NC(=O)Nc2cccc3c2O[C@H](CN(C)Cc2ccc(Oc4ccccc4)cc2)[C@H](C)CN([C@H](C)CO)C3=O)cc1,inactive,inactive
COCCNC(=O)[C@H]1[C@H](CO)[C@H]2Cn3c(cccc3=O)[C@@H]1N2S(=O)(=O)c1ccccc1C,inactive,inactive
C[C@@H]1CN([C@H](C)CO)C(=O)c2cccc(NS(=O)(=O)c3ccc(F)cc3)c2O[C@H]1CN(C)S(=O)(=O)c1ccc(F)cc1,inactive,inactive
